# In the supplement of paper PMC8728848:
# The list shows a part of the results.
# How the values were obtained:
# Test in all cases: glycan array binding signal (z-score within array); higher = stronger binding
# Settings in all cases: glycan notation: IUPAC condensed, linker removed
# [1] = molecular target: Gal(b1-4)GalNAc(b1-3)[Fuc(a1-2)]Gal(b1-4)GlcNAc
# Outline: (§1)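 Glycan array data were curated from 3228 arrays in the Consortium for Functional Glycomics database and kept only where the protein sequence was available. Glycan names were converted to IUPAC-condensed notation, and columns mapping to the same glycan were averaged. The binding signal is a within-array Z-score, averaged across arrays of the same protein sequence at different concentrations or buffers and across linkers. Negative Z-scores can be read as non-binding.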
# Gal(b1-4)Glc = molecular target: Gal(b1-4)Glc
# Outline: as §1
# Gal(b1-4)Glc6S = molecular target: Gal(b1-4)Glc6S
# Outline: as §1
# Gal(b1-4)GlcNAc = molecular target: Gal(b1-4)GlcNAc
# Outline: as §1
# [2] = molecular target: Gal(b1-4)GlcNAc(a1-6)Gal(b1-4)GlcNAc
# Outline: as §1
# Gal(b1-4)GlcNAc(b1-2)Man = molecular target: Gal(b1-4)GlcNAc(b1-2)Man
# Outline: as §1
# [3] = molecular target: Gal(b1-4)GlcNAc(b1-2)Man(a1-3)Man(b1-4)GlcNAc(b1-4)GlcNAc
# Outline: as §1
# [4] = molecular target: Gal(b1-4)GlcNAc(b1-2)Man(a1-3)[Gal(b1-4)GlcNAc(b1-2)Man(a1-6)]Man(b1-4)GlcNAc(b1-4)GlcNAc
# Outline: as §1
# [5] = molecular target: Gal(b1-4)GlcNAc(b1-2)Man(a1-3)[Gal(b1-4)GlcNAc(b1-2)Man(a1-6)]Man(b1-4)GlcNAc(b1-4)[Fuc(a1-6)]GlcNAc
# Outline: as §1
# [6] = molecular target: Gal(b1-4)GlcNAc(b1-2)Man(a1-3)[Gal(b1-4)GlcNAc(b1-2)Man(a1-6)][Gal(b1-4)GlcNAc(b1-4)]Man(b1-4)GlcNAc(b1-4)[Fuc(a1-6)]GlcNAc
# Outline: as §1
# [7] = molecular target: Gal(b1-4)GlcNAc(b1-2)Man(a1-3)[Gal(b1-4)GlcNAc(b1-2)Man(a1-6)][GlcNAc(b1-4)]Man(b1-4)GlcNAc(b1-4)[Fuc(a1-6)]GlcNAc
# Outline: as §1
# [8] = molecular target: Gal(b1-4)GlcNAc(b1-2)Man(a1-3)[GlcNAc(b1-2)Man(a1-6)]Man(b1-4)GlcNAc(b1-4)GlcNAc
# Outline: as §1
# [9] = molecular target: Gal(b1-4)GlcNAc(b1-2)Man(a1-3)[GlcNAc(b1-4)][Gal(b1-4)GlcNAc(b1-2)Man(a1-6)]Man(b1-4)GlcNAc(b1-4)GlcNAc
# Outline: as §1
# [10] = molecular target: Gal(b1-4)GlcNAc(b1-2)Man(a1-3)[Man(a1-6)]Man(b1-4)GlcNAc(b1-4)GlcNAc
# Outline: as §1
# [11] = molecular target: Gal(b1-4)GlcNAc(b1-2)Man(a1-6)Man(b1-4)GlcNAc(b1-4)GlcNAc
# Outline: as §1
# [12] = molecular target: Gal(b1-4)GlcNAc(b1-2)Man(a1-6)[GlcNAc(b1-2)Man(a1-3)]Man(b1-4)GlcNAc(b1-4)GlcNAc
# Outline: as §1
# [13] = molecular target: Gal(b1-4)GlcNAc(b1-2)Man(a1-6)[GlcNAc(b1-2)Man(a1-3)]Man(b1-4)GlcNAc(b1-4)[Fuc(a1-6)]GlcNAc
# Outline: as §1
# [14] = molecular target: Gal(b1-4)GlcNAc(b1-2)Man(a1-6)[Man(a1-3)]Man(b1-4)GlcNAc(b1-4)GlcNAc
# Outline: as §1
# [15] = molecular target: Gal(b1-4)GlcNAc(b1-2)Man(a1-6)[Man(a1-3)]Man(b1-4)GlcNAc(b1-4)[Fuc(a1-6)]GlcNAc
# Outline: as §1
# [16] = molecular target: Gal(b1-4)GlcNAc(b1-2)[Gal(b1-4)GlcNAc(b1-4)]Man(a1-3)[Fuc(a1-3)[Gal(b1-4)]GlcNAc(b1-2)Man(a1-6)]Man(b1-4)GlcNAc(b1-4)GlcNAc
# Outline: as §1
# [17] = molecular target: Gal(b1-4)GlcNAc(b1-2)[Gal(b1-4)GlcNAc(b1-4)]Man(a1-3)[Gal(b1-4)GlcNAc(b1-2)Man(a1-6)]Man(b1-4)GlcNAc(b1-4)GlcNAc
# Outline: as §1
# [18] = molecular target: Gal(b1-4)GlcNAc(b1-2)[Gal(b1-4)GlcNAc(b1-4)]Man(a1-3)[Gal(b1-4)GlcNAc(b1-2)[Gal(b1-4)GlcNAc(b1-6)]Man(a1-6)]Man(b1-4)GlcNAc(b1-4)GlcNAc
# Outline: as §1
binder,measurement,setting,value
Banana lectin (Musa acuminata) (protein) MNGAIKVGAWGGNGGSAFDMGPAYRIISVKIFSGDVVDGVDVTFTYYGKTETRHYGGSGGTPHEIVLQEGEYLVGMAGEVANYHGAVVLGKLGFSTNKKAYGPFGNTGGTPFSLPIAAGKISGFFGRGGKFLDAIGVYLEPLEHHHHHH,glycan array binding signal (z-score),[1],-0.184
same,glycan array binding signal (z-score),Gal(b1-4)Glc,-0.194
same,glycan array binding signal (z-score),Gal(b1-4)Glc6S,-0.181
same,glycan array binding signal (z-score),Gal(b1-4)GlcNAc,-0.22
same,glycan array binding signal (z-score),[2],-0.234
same,glycan array binding signal (z-score),Gal(b1-4)GlcNAc(b1-2)Man,-0.193
same,glycan array binding signal (z-score),[3],-0.113
same,glycan array binding signal (z-score),[4],-0.459
same,glycan array binding signal (z-score),[5],-0.604
same,glycan array binding signal (z-score),[6],-0.226
same,glycan array binding signal (z-score),[7],-0.603
same,glycan array binding signal (z-score),[8],-0.068
same,glycan array binding signal (z-score),[9],-0.204
same,glycan array binding signal (z-score),[10],0.185
same,glycan array binding signal (z-score),[11],-0.211
same,glycan array binding signal (z-score),[12],0.522
same,glycan array binding signal (z-score),[13],-0.526
same,glycan array binding signal (z-score),[14],1.42
same,glycan array binding signal (z-score),[15],-0.732
same,glycan array binding signal (z-score),[16],-0.962
same,glycan array binding signal (z-score),[17],-0.175
same,glycan array binding signal (z-score),[18],-0.555
